Laboratory results published in the supplement of paper PMC10126150.
Sequences with one replicate were seen in a single cluster, so their values are uncertain.

System: ATP
Assay: switch fluorescence ratio, 500 uM ATP over buffer (Cy3 cluster intensity, sum of 5 cycles each) (fold (ratio)); higher = stronger signal-on switching upon ATP binding; sequences stand for … in TCGTCGGCAGCGTCAGATGTGTATAAGAGACAGTTTTTTTTTTTTTTTTTTTTTTTTT…TC
Settings: aptamer strand: ATP DNA aptamer (quencher-CACCTGGGGGAGTATTGCGGAGGAAGG + anchor), 100 nM annealed; ATP concentration: 500 uM; one replicate
Procedure, shortened: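 Imaging in selection buffer was followed by imaging after 15 min with 500 uM ATP at 22 °C, for Cy3-labelled switching-strand clusters annealed to 100 nM quencher-labelled ATP aptamer on a modified Illumina MiSeq flow-cell. Five of these buffer/ATP cycles ran, separated by NaOH stripping and re-annealing. The fluorescence ratio per cluster is summed target-cycle over summed buffer-cycle Cy3 intensity, averaged per switch-domain sequence; clusters outside 100-1000 RFU were removed.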
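Note: ATP exposure 15 min at 22 °C before imaging.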

Sequence	switch fluorescence ratio
CTAGTTGTCA	1.02
CTAGTTGTTG	0.957
CTATAACCAT	0.995
CTATAATCCT	1.1
CTATACTCTC	1.18
CTATAGCATG	1.12
CTATAGCCGG	1.04
CTATAGGGA	0.977
CTATATCGAA	1.04
CTATATGAGA	0.963
CTATATTCA	1.02
CTATCAGG	0.984
CTATCAGGAG	0.998
CTATCATGGA	0.948
CTATCCAATT	1.02
CTATCCTAGC	1.07
CTATCGGGGC	0.94
CTATCGGGGG	1.04
CTATCTGAGC	0.994
CTATGACCCG	1.03
CTATGATGCT	1
CTATTAACAG	1.02
CTATTAGACA	0.962
CTATTCCCTT	0.973
CTATTGGACG	0.896
CTATTGTAAG	0.988

Sequence	switch fluorescence ratio
CTATTTCCTG	1
CTATTTCGTG	0.979
CTATTTTTTG	0.976
CTCAAAAAAT	0.839
CTCAAAGCGC	0.989
CTCAACGGAA	1.25
CTCAACGGAC	1.41
CTCAAGGCGT	1.03
CTCAATATTG	1
CTCAATCTCG	1.34
CTCAATCTTA	0.966
CTCACCTCGG	1.08
CTCACGGAAG	1.1
CTCACGGTGC	2.03
CTCACGTCGA	1.3
CTCAGAAAGG	1.01
CTCAGAGCAA	3.19
CTCAGAGGGG	1.03
CTCAGATAGC	1.1
CTCAGGGAG	1
CTCAGGGATA	1.18
CTCAGGTTGA	1.07
CTCATACCTA	1.03
CTCATAGTGT	0.997
CTCATATGAC	1.02
CTCATCAGG	1.13

Sequence	switch fluorescence ratio
CTCATCTGC	1.12
CTCATGGAAA	0.931
CTCATGGCG	1.14
CTCATGTTTG	0.934
CTCATTAAGA	0.954
CTCATTCGGC	1.06
CTCATTGGTT	1.08
CTCCAGACTA	1.11
CTCCATAACT	1.16
CTCCATCTGA	1
CTCCCACCCC	1.83
CTCCCGAGGG	1.01
CTCCCGGTTT	1.07
CTCCCTAGAT	1.21
CTCCTGAGTT	1.07
CTCCTGGGTT	1.05
CTCGAACACT	1.06
CTCGAACGCG	1.04
CTCGAAGTAT	1.04
CTCGAAGTTA	0.961
CTCGAATGCT	1.08
CTCGACATGA	1.04
CTCGACTCGC	1.08
CTCGAGGCTC	0.994
CTCGAGTACC	1.07
CTCGAGTGA	1.03

Sequence	switch fluorescence ratio
CTCGCAAAGG	3.24
CTCGCGAAAT	1.34
CTCGCTAAAT	1.35
CTCGGAGTAT	1.07
CTCGGCCTGA	1.06
CTCGGCGGAC	3.86
CTCGGGTAGC	1.02
CTCGGTTATG	0.974
CTCGTAAAAC	2.82
CTCGTACGCG	0.963
CTCGTAGTCA	1.03
CTCGTATTCC	0.989
CTCGTCGCT	0.997
CTCGTCGGGC	0.984
CTCGTGAAGA	1.09
CTCGTTCCTC	1.38
CTCGTTTTGT	1.03
CTCTAAAGAG	1.06
CTCTAAAGCG	0.979
CTCTAAAGGG	1.07
CTCTAATGTT	1
CTCTACCGGT	0.976
CTCTACGATC	1.37
CTCTATACAC	1.18
CTCTCGCCTA	1.16
CTCTCGGGAT	1.19

Sequence	switch fluorescence ratio
CTCTGACT	1.02
CTCTGACTTT	0.986
CTCTGATA	1.03
CTCTGCCCGT	1.04
CTCTGCCGGT	1.05
CTCTGGCGC	1.14
CTCTGGGGGG	1.01
CTCTTAAGGA	0.994
CTCTTATAGG	0.965
CTCTTCTATT	1.03
CTCTTCTCTC	1.05
CTCTTGGTGG	0.998
CTCTTGTACA	1.06
CTCTTGTTGG	0.997
CTGAAAGCTT	1.01
CTGAAATCAA	1.06
CTGAACGAAC	1.69
CTGAACGGGG	1.04
CTGAACTCGG	1.05
CTGAAGTTAG	1.08
CTGAATAAGA	0.993
CTGAATGCTA	1.32
CTGACAGACA	1.08
CTGACAGCTG	1.09
CTGACGAATA	3.35
CTGACGCGCA	2.17

Sequence	switch fluorescence ratio
CTGACGGTTG	1
CTGACTAAGG	1.08
CTGACTAGGA	0.985
CTGACTCGCC	2.55
CTGAGCAGT	1.03
CTGAGCGGGG	1.04
CTGAGCGGTC	1.12
CTGAGCTAGC	0.986
CTGAGGATAG	1.06
CTGAGGATTG	0.991
CTGAGGCTAT	2.87
CTGAGGGTCG	1.08
CTGAGTACCA	0.981
CTGAGTGGAA	0.997
CTGAGTTGCC	1.02
CTGAGTTGCT	0.996
CTGATACTGT	0.989
CTGATATGAA	0.978
CTGATCAGTG	1.01
CTGATGGATG	1.03
CTGATGGCTA	1.05
CTGATGTCAT	1.03
CTGATTACC	1.04
CTGATTATG	1.03
CTGATTTAAT	0.996
CTGCACGCCA	1.48

Sequence	switch fluorescence ratio
CTGCACTTTT	0.962
CTGCAGAAGC	1.03
CTGCAGTATT	1.28
CTGCATACTA	2.31
CTGCATATGA	1.54
CTGCATCCGA	1.37
CTGCATTCAG	1.06
CTGCCCGTGT	1
CTGCCCTTCA	1.27
CTGCCGGGTA	1.05
CTGCGAGTCG	1.01
CTGCGGTGTT	0.985
CTGCGTCAGG	1.1
CTGCTACCAC	1.39
CTGCTACTTG	1.03
CTGCTCAAGC	1.06
CTGCTGATGT	1.02
CTGCTGTAGA	1.06
CTGGAAAAGA	1.03
CTGGAAACCA	1.07
CTGGAATTGT	0.981
CTGGACGCCA	1.08
CTGGAGCCT	1.03
CTGGAGCGCG	1.32
CTGGCATAGG	0.969
CTGGCCT	1.05

Sequence	switch fluorescence ratio
CTGGCCTGTG	0.987
CTGGCTAACT	1.01
CTGGGCACCG	0.953
CTGGGGCAGG	1.1
CTGGGGTGCG	0.983
CTGGGTCCAA	1.01
CTGGTAACTA	0.986
CTGGTGAACG	1.03
CTGGTGCGAC	1.31
CTGGTGCTAG	0.983
CTGGTGGTCT	1.03
CTGGTTAC	1.06
CTGGTTGCGT	1.08
CTGGTTGGAA	1.03
CTGGTTTCCT	1.03
CTGGTTTTG	1.05
CTGTAAATGG	1.05
CTGTAATTTG	0.942
CTGTATAGTC	0.957
